# Test results from PubChem BioAssay AID686978 (National Center for Advancing Translational Sciences (NCATS), 2013).
# Among all 420,000 compounds or so, about 64,000 (15%) were called active. The inconclusive results got no clear call from the source; some entries with a clear call stand among them for comparison. Calls come from the whole dose curve; as a rule, active = well fitted inhibition curve with a large enough effect; inconclusive = small, poorly fitted or top-dose-only effect; inactive = flat fitted curve, though single readings scatter. Potencies of inconclusive entries are left out as doubtful fits.
# Assay: qHTS for Inhibitors of human tyrosyl-DNA phosphodiesterase 1 (TDP1): qHTS in cells in absence of CPT; note: nearly all actives have a fitted effect of over 55% in size
# Settings: DT40 Tdp1-/- hTDP1 cells, no CPT, ATP luminescence, 48 h; activity change, negative = growth inhibition: at 46.2 µM (top of the series)
# Procedure, shortened: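 DT40 Tdp1-/-;hTDP1 cells, no CPT (DMSO vehicle only), 400 cells/well; compounds pin-transferred; ≥48 hr, 37 °C; CellTiter-Glo 30 min RT dark, luminescence read.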
# % is set by controls: 0 for no effect and ±100 for the full control effect; potency is the fitted concentration of half-maximal effect; tags give direction and shape of the fitted curve.
SMILES,"activity change, negative = growth inhibition",Potency
COC(=O)c1cccc(NC(=O)CC2C(=O)NCCN2C(=O)Nc2cc(C)cc(C)c2)c1 (stereo unspecified),inactive: -0.108%,
O=C1c2ccccc2N2C(=O)c3ccccc3C2N1Cc1ccco1 (stereo unspecified),,active: 18.4 µM
C[C@]12C(=O)N(c3ccc(Cl)cc3)C(=O)N1[C@@H]1c3ccccc3OC[C@@H]1[C@H]2c1ccccc1,,active: 23.1 µM
CC1(C)Cc2c(cnn2-c2ccc(F)cc2)C(NC(=O)c2cnccn2)C1 (stereo unspecified),,"inconclusive [inhibitor, single point]"
C/C(=N\NC(=O)c1c(Cl)cnn1C)c1ccc(NC(=O)c2ccncc2)cc1,,active: 20.6 µM
COc1ccc(/C=C2\C=Cc3ccccc32)cc1OC,,"inconclusive [inhibitor, single point]"
CCN(CC)S(=O)(=O)c1cccc2cccnc12,inactive: 0.0172%,
Cn1c(=O)c2c(nc(NC3CCCCC3)n2CC(=O)C23CC4CC(CC(C4)C2)C3)n(C)c1=O,,"inconclusive [inhibitor, single point]"
CCOC(=O)c1[nH]c2ccc(OC)cc2c1N=CN(C)C,inactive: -13.2%,
Cc1cc(N/N=C/c2ccccc2)nc(N2CCOCC2)n1,inactive: -5.25%,
COc1cc2c(cc1NC(=O)COCC(=O)O)oc1ccccc12,inactive: 2.01%,
CCOC(=O)c1c(NC(=O)CSc2nc(-c3ccc(OC)cc3)cc(C(F)(F)F)n2)sc(C)c1C,,"inconclusive [inhibitor, partial curve]"
CCCCn1nc(NC(=O)COC)c2cc3ccc(C)cc3nc21,inconclusive: -2.35% [inhibitor],
Cn1c(=O)n(CC(=O)O)c(=O)c2c1nc1n2CCCN1c1ccc(Cl)cc1,inactive: 1.52%,
CN(C)c1ccc(C2C3CCCc4ccccc4C3=NN2C)cc1 (stereo unspecified),,"inconclusive [inhibitor, partial curve, poor fit]"
O=C(NC1CCCCC1)C(c1cc2ccccc2o1)n1c(=O)c(-c2ccco2)nc2ccccc21 (stereo unspecified),,active: 16.4 µM
CC[C@@H](C)[C@H](NC(=O)CCc1c(C)c2cc3c4c(oc3c(C)c2oc1=O)CCCC4)C(=O)O,inactive: -7.86%,
CCOc1cc(CNCCO)cc(Br)c1OCc1ccc(Cl)cc1,,"inconclusive [inhibitor, single point]"
COc1ccc(-c2cc(N)n(S(=O)(=O)Cc3ccccc3)n2)c(OC)c1,,"inconclusive [inhibitor, partial curve]"
COc1ccc(-n2ncc(C(=O)N3CCN(C4CCCCC4)CC3)c2C2CCN(C(=O)OC(C)(C)C)CC2)cc1,,active: 20.6 µM
COC(=O)c1cccc(CSC(=S)N2CCCC2)c1,,"inconclusive [inhibitor, single point]"
C=CCc1ccccc1OCc1nc2ccc(C)cc2[nH]1,,"inconclusive [inhibitor, single point]"
COc1ccc(NC(=O)CN(C)Cc2cccs2)cc1Cl,inconclusive: -33% [inhibitor],
COC(=O)c1ccccc1NC(=O)CSc1nc2cccnc2n1C,,"inconclusive [inhibitor, partial curve]"

SMILES,"activity change, negative = growth inhibition",Potency
O=C(Nc1nccs1)c1cc2c(s1)-c1ccccc1OC2,,"inconclusive [inhibitor, single point]"
COc1ccc(-c2c(C#N)c(N)n(N)c(=O)c2C#N)cc1Cl,,"inconclusive [inhibitor, single point]"
Cc1ccc(Nc2nc(NCCCN3CCOCC3)nc(N)c2[N+](=O)[O-])cc1,inactive: -10.5%,
O=C(Nc1cccc(CCc2ccccn2)c1)c1cc(F)c(F)cc1Cl,,"inconclusive [inhibitor, single point]"
N#CCCn1c(=O)c(-c2cccc(C#N)c2)nc2cnc(Oc3ccccc3)nc21,,"inconclusive [inhibitor, single point]"
CCCC1Cc2nc(Cl)c(C#N)cc2CO1 (stereo unspecified),inactive: -3%,
CCOc1ccc(NC(=S)NC(=O)c2cnn(CC)c2)c([N+](=O)[O-])c1,inactive: 6.56%,
O=S(=O)(c1c(F)cccc1F)N(CCc1ccc(F)cc1)C[C@@H](O)COCc1ccccc1,,"inconclusive [inhibitor, single point]"
CC(C)CNC(=O)C1Nc2ccccc2C2C=CCC12 (stereo unspecified),,"inconclusive [inhibitor, single point]"
CCN(CC)S(=O)(=O)c1ccc2c(c1)c(=O)c(C(=O)NCCc1ccccc1)cn2C,inconclusive: -33.5% [inhibitor],"inconclusive [inhibitor, partial curve]"
O=C(CN1CCCC1)Nc1cccc(Cl)c1Cl,inactive: -9.33%,
CCOC(=O)C1=CN(Cc2ccco2)S(=O)(=O)N(CC)C1c1ccc(C(F)(F)F)cc1 (stereo unspecified),,active: 16.4 µM
CCCn1c2ccccc2c2cnn(CC(=O)N(CC)c3cc(C)ccc3C)c(=O)c21,,"inconclusive [inhibitor, single point]"
Cc1ccc(Oc2ncnc(N)c2[N+](=O)[O-])cc1C,inactive: -11.8%,
CC(C)(/C=N/NC(=O)CSCc1ccc(Cl)cc1)CCC#N,inactive: -1.79%,
CCOC(=O)c1cc2c(=O)n3ccccc3nc2n(Cc2ccco2)c1=NC(=O)c1cccc(C)c1,,"inconclusive [inhibitor, single point]"
CCCNC(=O)CSc1c2c(nc3ccc(Cl)cc13)CCCC2,,"inconclusive [inhibitor, single point]"
c1ccc(CN2CCN(c3nc(NCc4ccco4)c4ccccc4n3)CC2)cc1,,active: 23.1 µM
CCc1ccc(-c2cc(C)no2)cc1S(=O)(=O)N1CCN(c2cc(C)ccc2C)CC1,,active: 16.4 µM
CCCNC(=O)C1(C)CCCN(C(=O)c2cccc(C(F)(F)F)c2)C1 (stereo unspecified),inactive: -20.3%,
CCc1c(C(C)=O)oc2ccc3c(C)cc(=O)oc3c12,,"inconclusive [inhibitor, single point]"
C1=C[C@H]2CCCN3CC[C@@H]([C@@H]2[C@]32CO2)[C@H]1CCOCc1ccccc1,,"inconclusive [inhibitor, single point]"
CC(C)[C@@H](C(=O)NCC1CCCO1)N1C(=O)N2CCc3c([nH]c4ccccc34)[C@@]2(C)C1=O (stereo partly specified),,"inconclusive [inhibitor, single point]"
O=C(Cn1c(/C=C/c2ccccc2)nc2ccccc21)Nc1ccc(F)cc1,,"inconclusive [inhibitor, single point]"

SMILES,"activity change, negative = growth inhibition",Potency
COc1cc(C(=O)Nc2ccc(Cl)c(C(F)(F)F)c2)cc(OC)c1OC,,active: 23.1 µM
Cc1nc2c(OCc3ccc(C#N)cc3)cccn2c1N(C)Cc1cccs1,,"inconclusive [inhibitor, single point]"
Cc1nc(SCC(=O)N(C)C2(C#N)CCCCC2)c2ccccc2n1,,"inconclusive [inhibitor, single point]"
Cc1ccc(CNC(=O)Cn2nc(N3CCN(c4ccccc4)CC3)ccc2=O)cc1,,"inconclusive [inhibitor, single point]"
CCN(c1ccccc1)S(=O)(=O)c1ccc(Cl)c(C(=O)NCCc2ccc(OC)cc2)c1,,"inconclusive [inhibitor, partial curve]"
Cc1ccc(CSCC(=O)N(C)CC(=O)Nc2ccc(Cl)c(Cl)c2)cc1,,"inconclusive [inhibitor, single point]"
Fc1ccccc1NC(=S)Nc1ccc(Br)cc1,,active: 23.1 µM
COc1ccc(N2CCN(C3CCCN(Cc4cccc(C)c4)C3)CC2)cc1 (stereo unspecified),,"inconclusive [inhibitor, single point]"
CCOc1ccccc1NC(=O)CCNC(=O)Cn1ccc2ccccc2c1=O,inactive: -11.9%,
CCC[C@H]1CN(Cc2cccnc2)C(=O)[C@@H]1CC(=O)Nc1ccc(Br)cc1,,"inconclusive [inhibitor, single point]"
COc1cc2c(cc1OC)C1(Nc3c-2c(Cc2ccccc2)nn3-c2ccccc2)C(=O)Nc2ccccc21 (stereo unspecified),,active: 23.1 µM
Cc1cc(Cl)ccc1NC(=S)NCC(O)c1ccccc1 (stereo unspecified),,"inconclusive [inhibitor, single point]"
Cc1cccc(N2CCN(C(=O)C3CCN(S(=O)(=O)c4c(C)noc4/C=C/c4ccccc4F)CC3)CC2C)c1 (stereo unspecified),,active: 6.51 µM
Cc1ccc(NC(=O)Nc2cn(C)c(=O)c3ccccc23)c(Cl)c1,,"inconclusive [inhibitor, single point]"
CCOC(=O)C1(CCOc2ccccc2)CCN(Cc2cnc(C)[nH]2)CC1,,"inconclusive [inhibitor, single point]"
Cc1ccc(SC[C@H](Cc2ccccc2)N2CC[C@@H](C(C)(C)C)CCC2=O)cc1,,"inconclusive [inhibitor, single point]"
Cc1ccc(C2C=C(c3ccccc3)Nc3nc(NS(=O)(=O)c4ccc(C)cc4)nn32)cc1 (stereo unspecified),,"inconclusive [inhibitor, single point]"
O=C(Nc1nc(-c2ccccc2)cs1)c1ccc(N2CCOCC2)c([N+](=O)[O-])c1,,active: 8.2 µM
C[C@H](NC(=O)c1ccco1)C(=O)Nc1nnc(SCc2ccccc2)s1,inactive: 24.4%,
O=[N+]([O-])C1=CC=C2C(=NC3(CCCCC3)N2O)C1=NCCO,inactive: -25.8%,
CCOC(=O)C/C(C)=N\Nc1nc(-c2ccccc2)cs1,,"inconclusive [inhibitor, single point]"
O=C(C1CCN(S(=O)(=O)c2ccc3ccccc3c2)CC1)N1CCN(c2ncccn2)CC1,,"inconclusive [inhibitor, single point]"
